# Assay results from PubChem BioAssay AID485294 (National Center for Advancing Translational Sciences (NCATS), 2010).
# The whole screen tested about 370,000 compounds, of which about 150 (0.041%) were called active. The shares of active, inactive and inconclusive entries below differ from those in the screen. The call rests on the fitted dose curve; in most records, active means well fitted inhibition curve with a large enough effect; inconclusive means small, poorly fitted or top-dose-only effect; inactive means flat fitted curve, though single readings scatter. No potency is given beside an inconclusive call; the fits are too rough.
# Molecular target: Beta-lactamase (Escherichia coli (strain K12)) (UniProt P00811)
# Test: qHTS Inhibitors of AmpC Beta-Lactamase (assay with detergent); further: nearly all actives have a fitted effect of over 25% in size;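 on activity change, negative = inhibition: 0% = no-compound wells and -100% = no-enzyme wells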
# Settings: AmpC hydrolysis of nitrocefin, absorbance 480 nm, 0.01% Triton; activity change, negative = inhibition: at 114 µM (top of the series)
# Procedure, shortened: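 AmpC (5.3 nM in the dispensed reagent) in 20 mM phosphate pH 7.0 with 0.01% (detergent screen) or 0.0001% Triton X-100 was preincubated with compounds for 15 min at room temperature. Nitrocefin was then added from an 800 uM solution, and hydrolysis was followed at 480 nm.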
# Potency means the concentration at half of the fitted maximal effect; tags describe the fitted curve by direction and shape.
# Chain of UniProt P00811 (P00811 whole entry, looked up): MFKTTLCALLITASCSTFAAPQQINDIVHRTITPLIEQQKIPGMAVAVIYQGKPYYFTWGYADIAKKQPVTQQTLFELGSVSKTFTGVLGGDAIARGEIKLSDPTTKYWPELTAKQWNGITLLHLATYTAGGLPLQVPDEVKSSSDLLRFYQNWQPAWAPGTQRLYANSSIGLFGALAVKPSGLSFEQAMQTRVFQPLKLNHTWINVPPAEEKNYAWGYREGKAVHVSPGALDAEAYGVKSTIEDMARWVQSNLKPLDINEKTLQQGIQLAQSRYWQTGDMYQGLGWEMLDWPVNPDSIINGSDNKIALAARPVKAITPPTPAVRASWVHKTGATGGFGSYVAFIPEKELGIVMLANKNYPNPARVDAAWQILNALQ
SMILES,"activity change, negative = inhibition",Potency
CCOc1ccccc1C=Nc1ccccc1C(=O)Nc1ccccc1,inactive: -6.1%,
CCC(CC)C(=O)c1c[nH]c(C(=O)NCc2cccs2)c1,inactive: 1.15%,
Cc1c(C)c2ccc(OCC(=O)N3CCOCC3)c(C)c2oc1=O,inactive: 4%,
COc1ccc(N=C2NC(=O)S/C2=C\c2ccc(N(C)C)cc2)cc1,,"inconclusive [inhibitor, single point]"
C=CCn1nnnc1SCC(=O)Nc1ccccc1C(=O)OC,,"inconclusive [inhibitor, partial curve]"
CC1CCN(Cc2nnnn2CCCC(=O)NC(c2ccccn2)C(F)(F)F)CC1 (stereo not drawn),inactive: 1.9%,
Cc1cccc(C)c1NC(=O)Cn1c(=O)c2cccn2c2ccccc21,,"inconclusive [inhibitor, full curve]"
O=CN1N=C(c2ccccc2)CC1c1ccc(Cl)cc1 (stereo not drawn),,"inconclusive [inhibitor, partial curve]"
O=C(Cn1cccc1C(=O)c1ccccc1)NCCC1=CCCCC1,inactive: 1.21%,
COc1ccc(CCNC(=O)CSCc2ccc(F)cc2)cc1OC,,"inconclusive [inhibitor, partial curve]"
CC1CCCCN1C(=O)c1ccc(C(=O)Nc2ccc(F)cc2)cc1 (stereo not drawn),,"inconclusive [inhibitor, partial curve, poor fit]"
CN(c1ccccc1)S(=O)(=O)c1ccc(C(=O)NCc2ccco2)cc1,,"inconclusive [inhibitor, full curve, poor fit]"
CCOc1ccc2nc(NCCCNS(=O)(=O)c3ccccc3)c(C#N)cc2c1,inactive: 5.33%,
COc1ccccc1CCNC(=O)CCn1c(=O)oc2ccccc21,,"inconclusive [inhibitor, full curve, poor fit]"
Cc1ccc(C(=O)NC(=S)N(C)C2CCCCC2)cc1,inactive: 0.531%,
COc1ccc(OCCOC(=O)c2cc(S(=O)(=O)N3CCOCC3)c(Cl)cc2Cl)cc1,,"inconclusive [inhibitor, full curve, poor fit]"
CCN1CCN(S(=O)(=O)c2ccc3ccccc3c2)CC1,,"inconclusive [inhibitor, full curve, poor fit]"
COc1ccc(/C=C/C(=O)Nc2cccc(F)c2)cc1S(=O)(=O)N1CCOCC1,inactive: -9.81%,
CCc1[nH]c(C)c(C(C)=O)c1C,,"inconclusive [inhibitor, full curve, poor fit]"
Cc1ccc(N(Cc2ccccc2)C(=O)c2cc(S(=O)(=O)N3CCOCC3)ccc2C)cc1,,"inconclusive [inhibitor, full curve, poor fit]"
CCOC(=O)C1=C(C)n2c(s/c(=C/c3cccc([N+](=O)[O-])c3)c2=O)=NC1c1ccc(O)c(OC)c1 (stereo not drawn),,"inconclusive [inhibitor, single point]"
CC1CCN(c2nc3c(c(=O)n(C)c(=O)n3C)n2CCSc2ncccn2)CC1,,"inconclusive [inhibitor, full curve, poor fit]"
CN(c1ccccc1)S(=O)(=O)c1cccc(C(=O)N2CCN(c3ccccn3)CC2)c1,,"inconclusive [inhibitor, partial curve, poor fit]"

SMILES,"activity change, negative = inhibition",Potency
Cc1csc(NC(=O)c2cnccn2)n1,inactive: -2.62%,
CC1(C)CC(=O)C=C(NCCN2CCN(C(=O)Cc3ccc(Cl)cc3)CC2)C1,,"inconclusive [inhibitor, full curve, poor fit]"
CC(Oc1ccccc1Cl)C(=O)Nc1ccccc1C(=O)N1CCOCC1 (stereo not drawn),,"inconclusive [inhibitor, full curve, poor fit]"
CN(C)c1cc(-c2ccc(Cl)c(Cl)c2)oc(=O)c1Cl,inactive: -5.04%,
CCOC(=O)N/N=C/c1c[nH]c2ccccc12,,"inconclusive [inhibitor, full curve]"
CCc1cccc(N2C(=O)CS(=O)(=O)C23C(=O)N(Cc2ccccc2)c2ccc(C)cc23)c1 (stereo not drawn),inactive: 16.4%,
Cc1ccc(Nc2nc(N)nc(CSc3nc(C)cc(C)n3)n2)cc1,inactive: -5.54%,
CC1CCC(C(=O)NC(C(=O)NCc2ccccn2)C(C)C)CC1 (stereo not drawn),,"inconclusive [inhibitor, full curve, poor fit]"
CSc1ncc(Cl)c(C(=O)C(C#N)c2nc3c(C)cc(C)cc3c(=O)[nH]2)n1 (stereo not drawn),,"inconclusive [inhibitor, full curve, poor fit]"
CC(C)Cc1nnc(NS(=O)(=O)c2ccc([N+](=O)[O-])cc2)s1,,"inconclusive [inhibitor, full curve]"
CC(C)OC(=O)c1nnc(Cc2ccc(Cl)cc2)o1,,"inconclusive [inhibitor, full curve, poor fit]"
CN(CC(=O)Nc1ccccc1Cl)C(=O)Cn1cnc2ccccc2c1=O,,"inconclusive [inhibitor, full curve, poor fit]"
O=C(c1cc(COc2ccc(F)c(F)c2)on1)N1CCN(C/C=C/c2ccccc2)CC1,inactive: -15.5%,
CSCC[C@H](NC(=O)c1cc([N+](=O)[O-])ccc1Cl)c1nc2ccccc2[nH]1,,"inconclusive [inhibitor, partial curve, poor fit]"
Cc1cc(C)nc(SCc2ccc([N+](=O)[O-])cc2)n1,inactive: 0.883%,
CC1CC(=O)Nc2ccccc2N1S(=O)(=O)c1ccc(C(F)(F)F)cc1 (stereo not drawn),,"inconclusive [inhibitor, partial curve]"
Cc1cc(N/C(=N\S(=O)(=O)c2ccc(Cl)cc2)c2ccc(F)cc2)no1,,"inconclusive [inhibitor, full curve, poor fit]"
Nc1ncnc(Nc2ccccn2)c1[N+](=O)[O-],inactive: -10.6%,
COc1ccc2cc3cc(C(=O)N4CCN(c5cccc(C(F)(F)F)c5)CC4)sc3nc2c1,inactive: -1.54%,
COCCNC(=O)c1cc2c(=O)n3cccc(C)c3nc2n(Cc2ccncc2)c1=N,,"inconclusive [inhibitor, partial curve, poor fit]"
O=C(N/N=C/C=C/c1ccc([N+](=O)[O-])cc1)C1COc2ccccc2O1 (stereo not drawn),,"inconclusive [inhibitor, single point]"
COc1cc([N+](=O)[O-])ccc1NC(=O)N1CCC2(CC1)Nc1ccccc1-n1cccc12,inactive: -4.92%,
COc1ccc(-n2c(SCC(=O)NCCC(C)C)nc3ccsc3c2=O)cc1,,"inconclusive [inhibitor, full curve]"

SMILES,"activity change, negative = inhibition",Potency
N/C(=C\C(=O)c1cc(Cl)ccc1O)C(Cl)(Cl)Cl,inactive: 7.48%,
Cc1ccc(N/N=C/c2c(C)c(C#N)c(=O)n(C)c2O)cc1C,inactive: -7.53%,
Cc1cc(=O)oc2cc(OCC(=O)N3CCN(c4ccccc4)CC3)c(Cl)cc12,,"inconclusive [inhibitor, partial curve, poor fit]"
Clc1ccc2c(c1)CCc1cccnc1C2=C1CCNCC1,,"inconclusive [inhibitor, full curve]"
CC(C)(C)OC(=O)NCC1CCN(S(=O)(=O)Cc2ccccc2)CC1,,"inconclusive [inhibitor, full curve, poor fit]"
O=c1cc(CSc2nnc(Nc3ccccc3F)s2)nc2sccn12,,"inconclusive [inhibitor, full curve, poor fit]"
COc1ccc(S(=O)(=O)N2CCC(C(=O)NC3CCCCC3)CC2)cc1OC,,"inconclusive [inhibitor, full curve, poor fit]"
C[C@H]1CN=C(Nc2ccccc2)N1CC1CCCCC1,,"inconclusive [inhibitor, partial curve]"
COc1ccc(Cl)cc1NC(=O)CN(C)CC(=O)Nc1ccccc1C(F)(F)F,,"inconclusive [inhibitor, single point]"
CCC(C)(C)NC(=O)C(c1ccncc1)N(C(=O)c1sc(C)nc1C)c1ccc(C)cc1 (stereo not drawn),inactive: 7.17%,
Cc1cccc(C(=O)N2CCN(c3ccccn3)CC2)c1,inactive: -3.91%,
Cc1cc(C(=O)N2CCCC(N3CCN(c4cccc(Cl)c4)CC3)C2)nn1C (stereo not drawn),inactive: 0.798%,
COc1ccc(NS(=O)(=O)c2cccc(NC(=O)C34CCC(CC3)C4)c2)cc1,,"inconclusive [inhibitor, partial curve, poor fit]"
CCOC(=O)CSc1nc2c(sc(=S)n2-c2ccccc2OC)c(=O)n1Cc1ccco1,,"inconclusive [inhibitor, partial curve, poor fit]"
CCOc1cccc(NC(=O)Cn2nc(-c3ccc4c(c3)OCCO4)ccc2=O)c1,,"inconclusive [inhibitor, partial curve, poor fit]"
CCC(C)C1N=C(c2ccccc2)c2cc(Cl)ccc2N(CC(=O)NCc2ccco2)C1=O (stereo not drawn),,"inconclusive [inhibitor, full curve, poor fit]"
CC(C)(C)c1ccc(C(=O)Nc2ccc(NC(=O)c3ccc(Cl)c(Cl)c3)cc2)cc1,inactive: -4.5%,
O=C(Nc1cccc([N+](=O)[O-])c1)c1ccc2nsnc2c1,inactive: 1.99%,
CCOc1ccccc1N(CC(=O)N/N=C/c1cc(Br)ccc1OC)S(C)(=O)=O,,"inconclusive [inhibitor, partial curve, poor fit]"
CCOCCCNC(=O)c1ccccc1SC,,"inconclusive [inhibitor, full curve]"
COc1ccc(-n2c(CN3CCN(c4ccccc4)CC3)nc3ccc([N+](=O)[O-])cc3c2=O)c(OC)c1,inactive: -19.9%,
COc1ccccc1N1CCN(C2=NS(=O)(=O)c3ccccc32)CC1,,"inconclusive [inhibitor, full curve, poor fit]"
